Data: PubChem BioAssay AID1159614 (National Center for Advancing Translational Sciences (NCATS), 2016)
Out of some 45,000 compounds screened, about 65 (0.1%) were called active. Calls come from the whole dose curve; as a rule, active = well fitted activation curve with a large enough effect; inconclusive = small, poorly fitted or top-dose-only effect; inactive = no such curve, though single readings can be large or run the other way. Some of the results follow.

Biological target: Galactocerebrosidase (Homo sapiens) (UniProt P54803)
Sequence of UniProt P54803 (P54803 whole entry, looked up): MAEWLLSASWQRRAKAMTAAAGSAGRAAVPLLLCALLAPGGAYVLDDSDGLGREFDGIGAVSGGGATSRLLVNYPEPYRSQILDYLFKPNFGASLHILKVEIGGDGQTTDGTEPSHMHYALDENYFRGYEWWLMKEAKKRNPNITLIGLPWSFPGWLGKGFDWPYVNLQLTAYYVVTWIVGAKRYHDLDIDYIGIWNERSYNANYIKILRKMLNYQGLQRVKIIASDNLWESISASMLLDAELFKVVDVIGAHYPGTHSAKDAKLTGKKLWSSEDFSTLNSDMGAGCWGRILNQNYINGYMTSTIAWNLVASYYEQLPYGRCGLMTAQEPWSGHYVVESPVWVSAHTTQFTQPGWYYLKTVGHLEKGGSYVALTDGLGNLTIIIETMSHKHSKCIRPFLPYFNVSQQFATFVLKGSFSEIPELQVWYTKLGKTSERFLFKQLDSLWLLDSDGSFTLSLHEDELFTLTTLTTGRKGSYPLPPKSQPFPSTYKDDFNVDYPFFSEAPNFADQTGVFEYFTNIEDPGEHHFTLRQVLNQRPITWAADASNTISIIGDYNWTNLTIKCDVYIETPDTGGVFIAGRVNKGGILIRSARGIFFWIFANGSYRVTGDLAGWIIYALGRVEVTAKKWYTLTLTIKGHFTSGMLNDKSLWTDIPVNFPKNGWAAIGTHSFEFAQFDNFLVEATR
Experiment: A Novel Cell-Based Assay to Identify Small Molecules for B -Galactocerebrosidase; note: 0% is about no effect; nearly all actives have a fitted effect of over 65% in size
Details: 145M-Twi-hGALC-G270D cells (Twitcher mouse brain line with human GALC G270D), HMU-beta-Gal fluorescence, 48 h; series mostly up to 57.5 µM; activation: at the top concentration
In short: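 Mutant human GALC (G270D), stably expressed in a Twitcher mouse brain cell line lacking endogenous GALC, is measured in live-treated cells via 6-hexadecanoylamino-4-methylumbelliferyl-β-galactoside hydrolysis (0.1 mM final, pH 5.2) with fluorescent detection.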

activation, inactive:
Cn1c(SCc2ccc(Br)cc2)nc2c([nH]c3ccccc32)c1=O 9.31%, Cc1cc(C)n(C(C)CC(=O)NCc2ccc(Cl)cc2)n1 (centres undefined) -16.4%, Cc1ccc(OCC(=O)OCc2cc(=O)n3nc(C4CC4)sc3n2)cc1 4.85%, Cc1ccc(NC(=O)C2CCN(c3nnc(C)c4c(C)n(-c5ccccc5)nc34)CC2)cc1Cl -17.5%, CCNC(=O)Cn1nc(C)n2c(cc3c(OC)cccc32)c1=O -2.77%, Cc1c(Cl)cccc1-n1ncc(C(=O)N2CCOCC2)c1C1CCN(C(=O)OC(C)(C)C)CC1 -18.8%, COc1ccc(C(=O)NCCn2cc(SCC(=O)Nc3ccc4c(c3)OCCO4)c3ccccc32)cc1OC 1.01%, CC(C)CC1Nc2ccc(C(=O)NCCCOC(C)C)cc2NC1=O (centres undefined) 1.43%, CCOC(=O)Cn1c(=O)n(-c2ccccc2OC)c2nc(-c3ccc(C(C)C)cc3)nc(C(N)=O)c21 -13.9%, CCOC(=O)c1c(Oc2ccc(C(C)=O)cc2)nnc(-c2ccccc2)c1-c1ccccc1 -14.2%, CCc1nn2c(=O)cc(COC(=O)C(CC)c3ccccc3)nc2s1 (centres undefined) -20.6%, CCN(CC)CCCNC(=O)c1ccc2c(Cl)c3c(nc2c1)CCCC3 -9.91%, COCCCNC(=O)C1CCN(c2cc(C)nc3c(-c4ccc(Cl)cc4)c(C)nn23)CC1 -7.06%, CNCC[C@@H](Oc1ccccc1C)c1ccccc1 -3.35%, O=C(CC1N=C2c3ccccc3N=C(SCC(=O)Nc3ccc(F)cc3)N2C1=O)NCc1cccs1 (centres undefined) -21.7%, COc1ccccc1N1CCN(CC(O)COc2cc(OC)c(OC)c(OC)c2)CC1 (centres undefined) -14.1%, CCCNC(=O)CSc1nc(-c2ccc(OC)cc2)cc(C(F)(F)F)n1 0.224%, Cc1ccc(C(=O)C(C)CN2CCCCC2)cc1 (centres undefined) -5.42%, CN(C)c1ccc(NC(=O)CSC2=Nc3ccccc3C3=NC(CCC(=O)NCc4cccs4)C(=O)N23)cc1 (centres undefined) -18.9%, COc1ccc2c(CNCc3cccs3)c(C(=O)O)n(Cc3ccccc3F)c2c1 -13.6%, O=C(NCc1ccccc1)c1ccc2oc(=O)n(Cc3ccccc3)c2c1 2.5%, COc1ccc(CC(=O)N2CCc3cc(OC)c(OC)cc3C2COc2ccc(F)cc2)cc1OC (centres undefined) -13.6%, CCOC(=O)COc1ccc(C)cc1C(=O)c1ccn2nc(-c3ccc(F)cc3)cc2n1 -10.2%, CC1CCN(C(=O)c2cccc(NC(=O)c3nsc4ccccc34)c2)CC1 -6.66%, COc1cccc(C(=O)Nc2cccc(C(=O)OCc3cc(=O)n4c(C)csc4n3)c2)c1 -30.9%, Cn1c(SCC(=O)Nc2nc3ccccc3s2)ncc(C(=O)Nc2ccc(F)cc2)c1=O 0.0643%, COCCNC(=O)c1ccc2c(c1)N=C(C)c1cc(C)ccc1S2 -15.3%, NS(=O)(=O)c1ccc2nc(NC(=O)COc3ccc(Cl)cc3Cl)sc2c1 -10.7%, Cc1c(C(=O)NC(C)c2ccccc2)sc2nc3n(c(=O)c12)CCCC3 (centres undefined) -5.66%, COc1ccc(N2CC(C(=O)NCc3nnnn3-c3ccc(C)c(C)c3)CC2=O)cc1 (centres undefined) -8%, O=C(Cn1c(SCCOc2ccc(Cl)cc2)nc2ccccc21)N1CCCCC1 -31.7%, COc1ccc(-c2nnc3n2N(C(C)=O)C(c2ccc(Cl)c(Cl)c2)=C(C(C)=O)S3)cc1 -4.72%, COc1ccccc1NC(=O)Cn1c(=O)c(CNc2ccc(C)cc2)cc2cc3c(cc21)OCCO3 -18.9%, Cc1cccc(N2C(=O)CSC23C(=O)N(CC(=O)NCc2ccccc2Cl)c2ccccc23)c1 (centres undefined) -18.4%, COc1ccc(CCNC(=O)C(=O)NCC(c2ccco2)S(=O)(=O)c2ccccc2)cc1 (centres undefined) -5.94%, COc1cccc(C2=CC(c3cc(Br)ccc3F)n3nnnc3N2)c1 (centres undefined) -4.97%, COc1ccc2cc3cc(C(=O)N4CCN(c5ccccc5F)CC4)oc3nc2c1 -17.1%, O=c1[nH]c(=O)n(C2CCCCC2)c(O)c1C1=Nc2ccccc2SC(c2ccc(Cl)cc2)C1 (centres undefined) -10.4%, COc1ccc(-c2noc(-c3ccc(N4CCN(c5ccccc5)CC4)c([N+](=O)[O-])c3)n2)cc1 -1.11%, CC(CNC(=O)CN1C(=O)c2cccnc2Oc2ccc(Cl)cc21)c1ccccc1 (centres undefined) -11.6%, COC(=O)c1ccc(NC(=O)N2CCN(Cc3cc(=O)n4nc(-c5ccc(C)cc5)sc4n3)CC2)cc1 -7.6%, Cc1cccc(NC(=O)c2ccc3c(c2)CCN3S(=O)(=O)c2ccccc2)c1C -23.7%, COc1cccc(OC)c1C(=O)Nc1nc2c(s1)CCc1ccccc1-2 -12.2%, Cc1nc2c(c(C)c1CCC(=O)NCc1ccc(Cl)cc1)c(=O)n(C)c(=O)n2C -12.5%, COc1ccc(NC(=O)CCNS(=O)(=O)c2cccc3nsnc23)cc1Cl -7.02%, Cc1ccc(/C=C/c2onc(C)c2S(=O)(=O)N2CCC(C(=O)N3CCN(c4ccccc4F)CC3)CC2)cc1 10.6%, Cc1cccc(-n2c(C)nc3cc(C(=O)NCCC4=CCCCC4)ccc32)c1 -3.33%, O=C(NCc1nc2ccccc2[nH]1)c1c(F)cccc1F -7.25%, O=C(CSc1nc(Nc2ccc(F)cc2)c2ccccc2n1)c1ccc(F)cc1 -20.4%, CCCS(=O)(=O)N1CC(=O)N(c2ccc(C)cc2)C(C)(C(=O)NC2CCCCCC2)C1 (centres undefined) 5.02%, O=C(NCCc1ccccc1Cl)c1ccc2c(=O)n(-c3ccccc3)c(=O)[nH]c2c1 -19.2%, CCOc1ccccc1CN1CCc2nc(Nc3ccc4c(c3)OCCO4)ncc2C1 -27.5%, COc1ccc(CCNC(=O)c2cc3sccc3n2Cc2ccc(Cl)cc2)cc1OC -6.87%, Cc1oc2ncn(CC(C)C)c(=O)c2c1C(=O)NC(C)c1ccccc1 (centres undefined) -25.6%, CCOc1ccc(NC(=O)Cn2c(=O)c(CNc3ccc(CC)cc3)cc3cc4c(cc32)OCO4)cc1 21.4%, Cc1ccc(CNc2ncnc3onc(-c4ccc(F)cc4)c23)cc1 18.3%, Cc1cc(C)c2nc(NC(=O)c3ccc(S(=O)(=O)N4CCc5ccccc54)cc3)sc2c1 -5.56%, CCN(C(=O)Cn1cnc2onc(-c3ccc(F)cc3)c2c1=O)c1ccc(OC)cc1 -29.4%, O=C(Cn1c(=O)n(Cc2ccc3c(c2)OCO3)c(=O)c2oc3ccccc3c21)Nc1ccccc1F 3.04%, Cc1cccc(-n2ccnc2SCC(=O)Nc2cccc3ccccc23)c1C -34.3%, COc1cc(OC)c(NC(=O)N2CCCn3nc(C)cc32)cc1Cl -8.93%, COc1ccc(C(=O)Nc2ccc3c(c2)CCCN3C(=O)c2cccs2)c(OC)c1 -11.5%, COCCn1c(C)cc(O)c(C(c2ccccc2)N2CCN(c3ccccc3)CC2)c1=O (centres undefined) -0.819%, COc1ccc(-c2nnc(SCC(=O)NC3CCCCC3)nc2-c2ccc(OC)cc2)cc1 -20.5%, Cc1sc2ncn(CC(=O)N3CCN(c4ccc(Cl)cc4)CC3)c(=O)c2c1S(=O)(=O)N1CCN(c2ncccn2)CC1 -13.3%, Cc1cccn2c(=O)c3cc(C(=O)NCc4cccnc4)c(=N)n(CCCO)c3nc12 -13.6%, CC(C)(C)c1ccc(C(=O)NC2(C(F)(F)F)C(=O)Nc3c2c(=O)[nH]c(=O)n3-c2ccccc2)cc1 (centres undefined) -6.79%, O=C(NCc1ccccc1)c1nc(S(=O)(=O)Cc2ccccc2)ncc1Cl -17.1%, CN1CCc2nc3sc(C(=O)Nc4ccccc4OC(F)(F)F)c(N)c3cc2C1 -27.8%, COC(=O)c1c(C)oc2ccc(N(C(=O)c3ccncc3)S(=O)(=O)c3c(C)cc(C)cc3C)cc12 -23.9%, CC1=Nc2cc(C(=O)NCCc3ccccc3)ccc2Sc2c(C)ccc(C)c21 -4.6%, Cc1ccc(Cn2c(SCC(=O)C(C)(C)C)nc3ccsc3c2=O)cc1 -16%, CCOC(=O)c1c(C)[nH]c(C)c1S(=O)(=O)N(C)CC(=O)Nc1ccc(C)c(N(C)C)c1 -4.84%, CCOC(=O)c1cc2c(=O)n3ccccc3nc2n(Cc2ccco2)c1=NC(=O)c1c(F)cccc1Cl -34.6%, COc1ccc(C)cc1NC(=O)c1ccc(=O)n(Cc2ccccc2)c1 -9.62%, CC(C)CCNC(=O)C1CCN(c2nc3ccc(Cl)cc3[nH]2)CC1 0.386%, O=C(Nc1ccc2nc(SCC(=O)N3CCCC3)sc2c1)c1cccc(Cl)c1 -18.5%, COc1ccc(NC(=O)Cn2c(=O)n(-c3ccc(C)cc3)c(=O)c3c2cnn3C)cc1 -8.15%, CCN1CCCC1=O -18.8%, COC(=O)c1cc2occc2n1Cc1nc(-c2cccc(Cl)c2)oc1C -13%, COc1ccc(OC)c(CCNC(=O)c2cnn(-c3ccccc3Cl)c2C2CCN(C(=O)OC(C)(C)C)CC2)c1 -11%, COc1ccc(Nc2nc3c(S(=O)(=O)c4ccccc4)nnn3c3ccsc23)cc1OC 16.7%, Cc1cccc(C(=O)Nc2c(C(=O)NCc3ccc(Cl)cc3)sc3nc(C)cc(C)c23)c1 -38%, CC(=O)Nc1ccc(S(=O)(=O)Nc2cc(-c3cn4ccccc4n3)ccc2C)cc1 -18.7%, COc1ccc(CCNC(=O)c2cn(C)c3ccc(S(=O)(=O)N(C)C4CCCCC4)cc3c2=O)cc1OC 17.4%, COc1ccc(/C=C/c2nc(C#N)c(NCCc3ccccc3)o2)cc1OC 29.8%, COc1ccc(NC(=O)c2c(C)oc3ccc(O)c(CN4CCCCCC4)c23)cc1Cl -11.1%, Cc1ccc(C)c(Cn2c(=O)cc(C)c3c(C)nn(-c4cccc(F)c4)c32)c1 -18.7%, COc1ccc(NC(=O)c2cnc(Nc3ccc(C)c(Cl)c3)c3ccccc23)cc1OC -5.88%, COc1ccc(-c2nsc(NC(=O)C(C)Oc3ccc(Cl)c(C)c3)n2)cc1 (centres undefined) -4.87%, COc1cccc(-n2c(=O)c3c(C)c(C)sc3n(CC(=O)NCc3ccccc3)c2=O)c1 -1.51%, CCOc1ccccc1N1CC(c2nc3ccccc3n2Cc2c(C)cc(C)cc2C)CC1=O (centres undefined) 4.81%, COc1ccc(NC(=O)c2ccc3c(SCC(=O)O)c4c(nc3c2)CCC4)c(OC)c1 -12.3%, COc1ccc(-c2nc(SCc3cc(=O)c4cc(C)ccc4[nH]3)n[nH]2)cc1 -4.7%
